The supplement of paper PMC11417369
± gives the standard deviation of the averaged measurements. The list shows a part of the results.

Tested on: PfAP2-LT AP2 domain (GST-tagged)
Experiment: gcPBM binding intensity (ln(normalized median fluorescence intensity)); higher = stronger DNA binding
Summary of the method: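 GST-fused DNA-binding domains of P. falciparum, expressed in E. coli, were applied at about 25 μg on average for 1 h to an Agilent 4 × 180k array of primer-extended double-stranded 36-bp intergenic genomic probes and negative controls. Binding intensity is the highest Masliner-normalised natural-log median intensity across replicate spots of either probe orientation, measured with Alexa488 anti-GST antibody and a 488 nm scan.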

Row | Sequence | gcPBM binding intensity (ln)
1 | TTTTTTTTTACTAACTGTACTAAAGAAAAAAAAGGG [XGTACX_site3519] | 8.2 ± 0.33
2 | ATGTGTATATGTGTGGGTACTTAATTTTTTTCTTTA [XGTACX_site5351] | 9.24 ± 0.15
3 | CGTATTATTATATAAACACACAAGGGGGCATGTATA [CACACA_site745] | 9.58 ± 0.028
4 | GTTATAATTGAACTAGTGCATAAATATATTTTAATT [GTGCAC_site9851] | 8.6 ± 0.46
5 | AATTCTGGCAAAATAACACACACATATATTTTATAT [CACACA_site9064] | 9.23 ± 0.38
6 | TATCTTTTTTTTAATACACACAAATATATGAAAGTA [CACACA_site4161] | 8.54 ± 0.36
7 | TTTGAATACTGAATGGTGCAAATTGTTCTCCCCATG | 8.67 ± 0.57
8 | AGTATAACTTTTGCGCGTACACACATTTATCCTCTT [XGTACX_site429] | 9.64 ± 0.53
9 | TATATTAAAATAATCACACACATCAATTAATGGTAA [CACACA_site1234] | 8.97 ± 0.32
10 | TATAATAATATTTACACACGCATATGTTATATATAT [CACACA_site1477] | 9.11 ± 0.32
11 | TGTATATGGTTTGTGCAAAAATTTATTAATGTGTAA [TGCATGCA_negctrl_site374] | 8.74 ± 0.51
12 | TACAAATGCGTATGTCAATATATGGAGAAATAAATA [TGCATGCA_negctrl_site290] | 8.74 ± 0.44
13 | ATTTGTATATACATATGTACACATGTAGGCTCATAA [XGTACX_site1709] | 9.05 ± 0.38
14 | TTTCGTAAACTTTATGCACACACATATACATATTTC [CACACA_site8146] | 9.41 ± 0.31
15 | TATTTTTTGAAAAGTTCACACATCCAACTCGAGTTG [CACACA_site4412] | 8.87 ± 0.39
16 | AAAAAAAAAAAAAATACACACATATTTTATAGGGGA [CACACA_site3261] | 8.98 ± 0.49
17 | AAAATAATGAAATGAAAAAAAAAAATTTAGATTCTA [CACACA_negctrl_site1385] | 8.33 ± 0.61
18 | TTATATATTTTTAGGTGTACTTTTTTTTTTTTTTTT [XGTACX_site8164] | 8.6 ± 0.59
19 | GTCATATATTTATGTACACACATATATATATTTATA [CACACA_site4911] | 9.04 ± 0.28

Row | Sequence | gcPBM binding intensity (ln)
20 | AAAAAACAAATAAGTAAACACACATATATAATATAT [CACACA_site8830] | 9.07 ± 0.43
21 | CTAATTGTTATTTTGTGTACTTATCATTCGAAATAT [XGTACX_site7963] | 8.86 ± 0.43
22 | TAGATGTAAGTACATACACACATATATAAATAAATA [CACACA_site8528] | 9.19 ± 0.45
23 | ATATATATTTTAATTACACACAAAAAAAAAAAAAAA [CACACA_site4778] | 8.57 ± 0.47
24 | ATATATATTTTATATTGTACTTATTATTTTTAGGGC [XGTACX_site723] | 8.69 ± 0.44
25 | AGGATATATATATTCACACACACATGGAAATATATA [CACACA_site383] | 9.46 ± 0.28
26 | TATGAATATCTATACACACACATATAAATACACGCT [CACACA_site6853] | 9.46 ± 0.26
27 | ATTATAATATATATATGTACATATATATATAATACT [XGTACX_site5092] | 8.77 ± 0.33
28 | GTATAATTGGAAATTACACACCTTAGAATGTAACAT [CACACA_site4059] | 8.85 ± 0.37
29 | ATATATAATATTGGTGGTACAAGGGTATTTTATATT [XGTACX_site8215] | 8.85 ± 0.36
30 | TATAATATACTATGTGGTACATATATATATTTATAG [XGTACX_site4556] | 8.72 ± 0.46
31 | TCATTTATTTTTCTTTGTACACAAAAGTTTTTATGT [XGTACX_site690] | 8.92 ± 0.41
32 | CATATGTTATATGTAGTGCATTACTATAGGATTTAT [GTGCAC_site9860] | 8.77 ± 0.4
33 | TATTTTGCAAAATGTGCATGTTGTGTATTATGTGAC [TGCATGCA_site59] | 9.02 ± 0.33
34 | TGGTATGCAATATTGGTGCGTATATATTTTAAAGGG | 8.8 ± 0.45
35 | TATTTTTAATTTTTTAATGGTTTAATATTTTTATAT [CACACA_negctrl_site1186] | 8.41 ± 0.47
36 | TATTCTAAGATAAGTGGTACTTATATATAATATATA [XGTACX_site8316] | 8.46 ± 0.43
37 | TCTTTAGCTTCTTCTTTTTTTTTTTTTTTTTTTTTT [XGTACX_negctrl_site518] | 8.43 ± 0.65
38 | ATATATATATATATATGTACATAAACATATATATAT [XGTACX_site1064] | 9.22 ± 0.2

Row | Sequence | gcPBM binding intensity (ln)
39 | AACGAAAACACTACGTGTACCAAACGTCCTACCAAC [XGTACX_site257] | 9.07 ± 0.42
40 | TAATTAAGAATATATAGTACATAGTTGAAAAACTTT [XGTACX_site6359] | 8.55 ± 0.52
41 | AAGATAAAAATATGCACACATATATATATATATATA [CACACA_site404] | 10.1 ± 0.17
42 | AATAGTTAAATACATACATGCATTCATATAATATAT [TGCATGCA_site433] | 8.79 ± 0.4
43 | AATGTACGCATATACACACACATAAATAGATACGTA [CACACA_site3406] | 9.55 ± 0.38
44 | TTTTTTTTTTTTTTTTTTTTACGATATATTTTAAAA [XGTACX_negctrl_site401] | 8.22 ± 0.25
45 | TAGATCATAACAATTGCACACATTTGCATTTATATT [CACACA_site1562] | 9.11 ± 0.4
46 | TTTTTACTTATTTATTATGTACAATTTCTTCTTTCT [CACACA_negctrl_site264] | 8.82 ± 0.52
47 | TTCAAAAAATATATCTGTACAAATTATGTAGATGAA [XGTACX_site5522] | 8.62 ± 0.41
48 | AGTATTTTGTTTATCACACATATTGGAATTTTCAAT [CACACA_site4686] | 8.95 ± 0.3
49 | AAAATAATTCAATGTAGTACAATACAAATTGAGAGA [XGTACX_site5991] | 8.82 ± 0.39
50 | AAAATTATACACACACGTACATATAAATAGAAATAT [XGTACX_site1753] | 9.48 ± 0.38
51 | TTTGTTGGTATGGTTACACACATTTAGGAAATAAAA [CACACA_site1411] | 8.63 ± 0.41
52 | TCTTATAAATTAAATATAAAAAAAAAAAAAAAAAAA [XGTACX_negctrl_site77] | 7.96 ± 0.45
53 | TTTTTATAACAGCTTAGTACATATAAGAATTCTTGC [XGTACX_site5890] | 8.64 ± 0.33
54 | GACCCCATATACATATGTACATACATAATATATATA [XGTACX_site1817] | 9.04 ± 0.43
55 | GGTGTTTTTCACAGATGTACACAAATAAAAAAGAAA [XGTACX_site4454] | 8.71 ± 0.54
56 | TATATATAAAAAAAAAGTACATATAATATAATATTT [XGTACX_site7902] | 8.51 ± 0.49
57 | AAATGGACAGTATAAAAATGGAGAATATAAAAATTT [CACACA_negctrl_site889] | 8.87 ± 0.61
